Assay results published in PubChem BioAssay AID504466 (National Center for Advancing Translational Sciences (NCATS), 2011).
Among all 330,000 compounds or so, about 4,200 (1.3%) were called active. The shares of active, inactive and inconclusive entries below differ from those in the screen. Calls follow the shape of the dose curve; as a rule, active = well fitted activation curve with a large enough effect; inconclusive = small, poorly fitted or top-dose-only effect; inactive = no such curve, though single readings can be large or run the other way. Potencies beside an inconclusive call are fits to weak or partial responses and may not hold up.

Experiment: qHTS screen for small molecules that induce genotoxicity in human embryonic kidney (HEK293T) cells expressing luciferase-tagged ELG1; also: nearly all actives have a fitted effect of over 60% in size
Conditions: HEK293T ELG1-luciferase reporter, luminescence, 16 h; series mostly up to 46 µM
Procedure, shortened: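 After overnight (16 hr) compound treatment at 37 °C, ELG1-luciferase HEK293T cells were lysed with ONE-Glo; luminescence quantified 30 min later at room temperature.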
Potency is read from the fitted curve at half-maximal effect; tags tell the direction and shape of the fitted curve.

With `C/C(=N\NC(=O)COc1ccc(C)cc1C(C)C)c1cc2ccccc2o1` as the molecule, how does the Potency read?
The Potency was “inactive”.

For `O=C(Oc1ccc2c(c1)C(=O)c1ccccc1CO2)c1ccccc1`, which Potency is on record?
Its Potency is inconclusive: 32.6 µM [activator, partial curve, poor fit].

Which Potency does the source give for `CC(=O)c1cccc(OCc2cc(C(=O)N3C[C@@H](C)O[C@@H](C)C3)no2)c1` here?
Its Potency is inconclusive: 20.6 µM [activator, partial curve, poor fit].

For `O=C(CCCOc1ccccc1)Nc1nc2ccccc2[nH]1`, which Potency is on record?
The Potency was inconclusive: 16.4 µM [activator, partial curve, poor fit].

With `COc1ccc2nc3cc(Cl)ccc3c(Nc3cc(CN4CCCC4)c(O)c(CN4CCCC4)c3)c2n1` as the molecule, how does the Potency read?
The Potency was inconclusive: 5.17 µM [activator, single point].

Which Potency does the source give for `Cc1ccc(NC(=O)CNc2ccccc2N2CCCC2=O)cc1S(=O)(=O)N1CCCCC1` here?
The Potency was “inactive”.

With `CSc1c(C#N)c(N)c(C#N)c2c1COC(C)(C)C2` as the molecule, how does the Potency read?
The Potency was inconclusive: 20.6 µM [activator, partial curve, poor fit].

With `Clc1cc(NCc2cccs2)ccc1N1CCOCC1` as the molecule, how does the Potency read?
The Potency was active: 18.4 µM.

With `COc1ccccc1C(=O)/C=C/c1ccc(N2CCCCC2)c([N+](=O)[O-])c1` as the molecule, how does the Potency read?
The Potency was inconclusive: 1.16 µM [activator, single point].

For `CCOC(=O)N1CCC(Nc2ncnc3c2cnn3-c2ccc(Cl)cc2)CC1`, which Potency is on record?
Its Potency is active: 11.6 µM.

With `Cc1cc(C(=O)COC(=O)c2n[nH]c(=O)c3ccccc23)c(C)n1C(C)C` as the molecule, how does the Potency read?
The Potency was inconclusive: 16.4 µM [activator, partial curve].

With `CCn1cc(C(=O)N2CCN(c3ccccc3F)CC2)c(=O)c2ccc(C)nc21` as the molecule, how does the Potency read?
The Potency was “inactive”.

With `CCOC(=O)CSc1nc2cc(OCC)ccc2cc1C#N` as the molecule, how does the Potency read?
The Potency was active: 8.2 µM.

With `CCCCOC(=O)Nc1ccc(N2CCOCC2)cc1` as the molecule, how does the Potency read?
Its Potency is inconclusive: 14.6 µM [activator, partial curve].

With `CC(=O)Oc1ccc(/C=C2/SC(=S)N(Cc3ccccc3)C2=O)cc1` as the molecule, how does the Potency read?
Its Potency is “inactive”.

Which Potency does the source give for `Cc1cc(C)c2cc(C(=O)Nc3ccccc3)[nH]c2c1` here?
Its Potency is inconclusive: 23.1 µM [activator, partial curve, poor fit].

Which Potency does the source give for `Cn1c(COc2ccccc2)nc2ccccc21` here?
Its Potency is inconclusive: 20.6 µM [activator, partial curve].

For `C/C(CCC(=O)OC[C@H]1O[C@H](C#Cc2ccccc2)C=C[C@@H]1Oc1ccc(C)cc1)=N\O[C@@H](C)CN1CCCCc2nc(C)c(C)cc21`, which Potency is on record?
Its Potency is “inactive”.

Which Potency does the source give for `COc1ccc(/C=C(\CC(=O)O)c2nc3ccccc3s2)cc1O` here?
The Potency was “inactive”.

Which Potency does the source give for `Cc1ccc(C(=O)Nc2nc(C)c(C)s2)o1` here?
The Potency was inconclusive: 2.06 µM [activator, partial curve, poor fit].

For `COC(=O)CC1(C(=O)OC)Oc2ccc(Br)cc2C(=O)N1c1cc(Cl)c(Cl)cc1Cl` (stereo not given), which Potency is on record?
Its Potency is “inactive”.

Which Potency does the source give for `O=C(O)c1cccc(Nc2ccnc(Nc3cccc(C(=O)O)c3)n2)c1` here?
Its Potency is inconclusive: 18.3 µM [activator, partial curve, poor fit].

With `O=c1[nH]c(C2CCN(S(=O)(=O)Cc3ccccc3)CC2)nc2c1nnn2Cc1ccccc1` as the molecule, how does the Potency read?
The Potency was “inactive”.

For `Cc1ccc2nc(=O)c(NNc3ccccc3)cnc2c1`, which Potency is on record?
The Potency was inconclusive: 20.6 µM [activator, partial curve, poor fit].

For `C/C(=N\NC(=O)c1ccccc1F)c1cccc(NC(=O)c2ccccc2)c1`, which Potency is on record?
The Potency was inconclusive: 23.1 µM [activator, single point].

Which Potency does the source give for `CCCC(=O)N1CCCC(c2nc(-c3cccc(OC)c3)no2)C1` (stereo not given) here?
Its Potency is inconclusive: 5.17 µM [activator, partial curve].

Which Potency does the source give for `COc1ccc(-c2nc3ccccn3c2/N=C/c2ccc(OC)c(OC)c2)cc1O` here?
The Potency was “inactive”.

Which Potency does the source give for `CN(CCNC(=O)CN1C(=O)CSc2ccc(S(=O)(=O)N3CCCC3)cc21)Cc1ccccc1` here?
Its Potency is inconclusive: 0.259 µM [activator, single point].

For `Cc1cc(-c2nnc(SCCC(=O)Nc3ccccc3)o2)no1`, which Potency is on record?
The Potency was “inactive”.

Which Potency does the source give for `COC(=O)C1=C(C)NC=C([N+](=O)[O-])C1c1ccc(OC)cc1` (stereo not given) here?
Its Potency is “inactive”.

For `CC(=O)Nc1sc(N/N=C\c2ccccc2Cl)nc1-c1cccs1`, which Potency is on record?
Its Potency is inconclusive: 10.3 µM [activator, partial curve, poor fit].

With `Cn1nnnc1SCC(=O)Nc1nc2c(s1)CCCC2` as the molecule, how does the Potency read?
Its Potency is active: 8.2 µM.

Which Potency does the source give for `CCN(CC(=O)Nc1cccc(S(=O)(=O)N2CCCCC2)c1)Cc1ccccc1` here?
Its Potency is inconclusive: 29.1 µM [activator, partial curve, poor fit].

For `COc1cc(C(=O)Nc2ccc(S(=O)(=O)Nc3cnc4ccccc4n3)cc2)cc(OC)c1OC`, which Potency is on record?
The Potency was inconclusive: 32.6 µM [activator, partial curve, poor fit].

For `CCCNC(=O)c1oc2ccc3c(c2c1C)C=CC(C)(C)O3`, which Potency is on record?
The Potency was inconclusive: 20.6 µM [activator, single point].

For `CC(Oc1ccc2ccc(=O)oc2c1)C(=O)NC(Cc1c[nH]c2ccc(O)cc12)C(=O)O` (stereo not given), which Potency is on record?
The Potency was “inactive”.

For `CCOC(=O)c1c(NC(=O)Cn2c(C)nc3ccccc32)sc2c1CCC2`, which Potency is on record?
The Potency was inconclusive: 23.1 µM [activator, partial curve, poor fit].

For `Cc1ccc(C2=NNC(C(O)C(O)C(O)CO)S2)cc1` (stereo not given), which Potency is on record?
Its Potency is inconclusive: 20.6 µM [activator, single point].

With `Cc1cccc(Nc2nc(-c3ccc(F)c(C)c3)cs2)n1` as the molecule, how does the Potency read?
Its Potency is “inactive”.

With `Cc1c(NC(=O)CSc2ccc(Cl)cc2)cccc1-c1nc2cc(Cl)ccc2o1` as the molecule, how does the Potency read?
Its Potency is “inactive”.

With `CCOC(=O)CC1COCCN1C(=O)c1ccc2oc(Cc3ccccc3)nc2c1` (stereo not given) as the molecule, how does the Potency read?
Its Potency is inconclusive: 14.6 µM [activator, partial curve].

Which Potency does the source give for `O=C(OCC(=O)c1c[nH]c2ccccc12)C1=COCCO1` here?
The Potency was inconclusive: 16.4 µM [activator, partial curve].

For `CCN(CC)C(=O)CSc1nnc(-c2ccccc2)o1`, which Potency is on record?
The Potency was active: 16.4 µM.

For `COc1ccc(-c2csc(NC(=O)C3=COCCO3)n2)cc1OC`, which Potency is on record?
The Potency was inconclusive: 8.2 µM [activator, partial curve, poor fit].

Which Potency does the source give for `CS(=O)(=O)N1CCN=C1SCc1ccc([N+](=O)[O-])cc1` here?
The Potency was “inactive”.

With `O=C(NC(=S)Nc1ccc2[nH]c(=O)[nH]c2c1)c1cccc(F)c1` as the molecule, how does the Potency read?
The Potency was inconclusive: 25.9 µM [activator, partial curve, poor fit].

With `Cc1oc(C(C)(C)C)cc1C(=O)Nc1cccc(C(=O)O)c1` as the molecule, how does the Potency read?
The Potency was inconclusive: 3.66 µM [activator, full curve].

With `Cc1cc(C)cc(NC(=O)c2cc(C)n(Cc3cccs3)c2C)c1` as the molecule, how does the Potency read?
Its Potency is inconclusive: 3.66 µM [activator, full curve].

Which Potency does the source give for `O=C(NC1CCCC1)c1cc(-c2ccccc2O)on1` here?
Its Potency is active: 14.6 µM.

For `Cc1ccccc1NC(=O)C(=O)Nc1ccccc1C`, which Potency is on record?
The Potency was inconclusive: 1.83 µM [activator, full curve, poor fit].

For `Cc1ccc(CNc2ccc3c(c2)ncn3C)cc1`, which Potency is on record?
Its Potency is active: 8.2 µM.

With `O=C(CSc1ncn[nH]1)Nc1c(F)cc(F)cc1Br` as the molecule, how does the Potency read?
Its Potency is “inactive”.

Which Potency does the source give for `CC1(C)CC(=O)c2c(O)cc(OCC(=O)N3CCN(c4ccccc4)CC3)cc2O1` here?
Its Potency is “inactive”.

With `Cc1ccc(/C=N/NC(=O)c2sccc2OCc2ccc(F)cc2)cc1` as the molecule, how does the Potency read?
Its Potency is inconclusive: 7.31 µM [activator, partial curve, poor fit].

With `O=C(N/N=C/c1ccc(Br)s1)c1ccco1` as the molecule, how does the Potency read?
Its Potency is inconclusive: 20.6 µM [activator, partial curve, poor fit].

With `C=CCNc1nc(C(=O)OC(C)C(=O)c2ccc(C)cc2)cs1` (stereo not given) as the molecule, how does the Potency read?
Its Potency is inconclusive: 25.9 µM [activator, partial curve, poor fit].

With `Cc1ccc(C(=O)CSc2nnc(-c3ccco3)o2)o1` as the molecule, how does the Potency read?
The Potency was inconclusive: 29.1 µM [activator, single point].

Which Potency does the source give for `O=C(NCC(O)c1ccccc1)c1cccc(S(=O)(=O)N2CCOCC2)c1` (stereo not given) here?
The Potency was inconclusive: 20.6 µM [activator, partial curve, poor fit].

With `COC(=O)/C=c1/s/c(=C(/C#N)C(=O)N2CCCCC2)n(-c2ccccc2)c1=O` as the molecule, how does the Potency read?
Its Potency is “inactive”.

For `COC(=O)c1c(C)[nH]c(C(=O)OC(C)C(=O)N(C)C2CCCCC2)c1C` (stereo not given), which Potency is on record?
Its Potency is inconclusive: 32.6 µM [activator, partial curve, poor fit].

With `O=C(Nc1ccc(NC(=O)c2ccc(Cl)c(S(=O)(=O)N3CCOCC3)c2)cc1)c1ccccc1` as the molecule, how does the Potency read?
Its Potency is inconclusive: 14.6 µM [activator, single point].

For `COc1cc(CSc2nnnn2-c2ccc(C)cc2)cc(OC)c1OC`, which Potency is on record?
The Potency was inconclusive: 3.26 µM [activator, full curve].

For `COc1ccc(S(=O)(=O)n2nc(OCc3cccs3)cc2N)cc1`, which Potency is on record?
Its Potency is “inactive”.

With `Cc1ccc(NC(=O)Nc2cnccn2)c(C)c1` as the molecule, how does the Potency read?
The Potency was inconclusive: 9.2 µM [activator, partial curve].

For `CCCCOC(=O)c1ccc(NC(=O)c2cc(Cl)ccc2OC)cc1`, which Potency is on record?
The Potency was inconclusive: 32.6 µM [activator, partial curve, poor fit].

With `c1ccc(C(Cc2nc(-c3ccncc3)no2)c2ccccc2)cc1` as the molecule, how does the Potency read?
The Potency was inconclusive: 18.4 µM [activator, single point].

Which Potency does the source give for `Cc1ccccc1-n1c(C)cc(/C=C(\C#N)C(=O)NCC2CCCO2)c1C` (stereo not given) here?
Its Potency is active: 10.3 µM.

Which Potency does the source give for `Cc1ccnn1CCC(=O)N1CCCC(N2CCN(c3cccc(Cl)c3)CC2)C1` (stereo not given) here?
The Potency was “inactive”.

Which Potency does the source give for `Cc1ccc(CSc2nc3c(c(=O)[nH]2)CCC3)cc1` here?
The Potency was inconclusive: 23.1 µM [activator, partial curve, poor fit].

Which Potency does the source give for `CCN(c1ccccc1)S(=O)(=O)c1cc([N+](=O)[O-])ccc1N` here?
Its Potency is inconclusive: 25.9 µM [activator, single point].
